These results are taken from the supplement of paper PMC7125110.

± gives the standard error. For some of these results: Variants at the background level are over-represented here. Some results are limits rather than exact numbers.

B1: glmS ribozyme (parent)
chain: AUAAAAGCGCCAGAACUACAGAAAUGUAGUUGACGAGGAGGAGGUUUAUCGAAUUUUCGGCGGAUGCCUCCAAA

Conditions in all cases: with glucosamine-6-phosphate
The variants in series [1] derive from B1. In words: self-cleavage kobs at 640 uM GlcN6P; higher = faster cleavage; RNA array. An outline of the steps: (§1)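 On sequenced MiSeq chips, barcoded ribozyme variants were made in situ by E. coli RNA polymerase and followed at 37 °C through a hybridised Cy3 probe. Glucosamine-6-phosphate was flowed in at 40 μM to 10 mM in HEPES/KCl/Mg(OAc)2 buffer. Exponential fits to normalised per-tile medians gave kobs, and weighted Michaelis–Menten fits gave kcat and KM.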

Series [2] covers variants of B1. In words: self-cleavage kobs at 2500 uM GlcN6P; higher = faster cleavage; RNA array. An outline of the steps:
as §1

In series [3] the parent is B1. Briefly: self-cleavage kobs at 160 uM GlcN6P; higher = faster cleavage; RNA array. An outline of the steps:
as §1

In series [4] the parent is B1. In words: self-cleavage kobs at 10000 uM GlcN6P; higher = faster cleavage; RNA array. An outline of the steps:
as §1

As for AUAAAAGCGCCAGAACUACAGAAAUGUAGUUGACGAGGAGGACGUUGAUCGAAUUUUGGGCGGAUGCCACCAAA [G43C U47G C58G U69A], the “self-cleavage kobs at 640 uM GlcN6P” value in series [1] was < 1e-05 s⁻¹.
AUAAAAGCGCCAGAACUACAGAAAUGUAGUUGACGAGGAGGAGGGUUAUCGAAUUUUCGGCGGCUGGCUCCAAA [U45G A64C C67G]: the “self-cleavage kobs at 640 uM GlcN6P” value in series [1] was < 1e-05 s⁻¹.
With AUAAAAGCGCCAGAACUACAGAAAUGUAGUUGACGAGGAGGAGGCUUAUCGAAUUUUCGGCGGACUCGUCCAAA [U45C U65C G66U C68G], the “self-cleavage kobs at 640 uM GlcN6P” value in series [1] is < 1e-05 s⁻¹. Also, in series [2], the “self-cleavage kobs at 2500 uM GlcN6P” value is < 1e-05 s⁻¹.
Turning to AUAAAAGCGCCAGAACUACAGAAAUGUAGUUGACGAGGAGGAGGGUUACCGAAUUUUCGGCGAAUGCCUCCAAA [U45G U49C G63A], the “self-cleavage kobs at 640 uM GlcN6P” value in series [1] was < 1e-05 s⁻¹.
In the case of AUAAAAGCGCCAGAACUACAGAAAUGUAGUUGACGAGGAGGAGGGUUAUCUACUUUACGGCGGAUGCCUCCAAA [U45G G51U A53C U57A], the “self-cleavage kobs at 640 uM GlcN6P” value in series [1] was < 1e-05 s⁻¹. The “self-cleavage kobs at 2500 uM GlcN6P” value in series [2] is < 1e-05 s⁻¹.
Consider AUAAAAGCGCCAGAACUACAGAAAUGUAGUUGACGAGGAGGACGUUUAUCGAAUUUUCGGCGGAUGCCUCGAAA [G43C C71G], for which, in series [1], the “self-cleavage kobs at 640 uM GlcN6P” value is < 1e-05 s⁻¹. Moreover, the “self-cleavage kobs at 160 uM GlcN6P” value in series [3] was < 1e-05 s⁻¹. Moreover, the “self-cleavage kobs at 2500 uM GlcN6P” value in series [2] is < 1e-05 s⁻¹.
In the case of AUAAAAGCGCCAGAACUACAGAAAUGUAGUUGACGAGGAGGAGCUUUAUCGAAUUUUAGGCUGGUGCCUCCAAA [G44C C58A G62U A64G], in series [1], the “self-cleavage kobs at 640 uM GlcN6P” value was < 1e-05 s⁻¹.
As to AUAAAAGCGCCAGAACUACAGAAAUGUAGUUGACGAGGAGGAGAUUGAUCGAAUUUUUGGCGGAUGCCUCCAAA [G44A U47G C58U], in series [1], the “self-cleavage kobs at 640 uM GlcN6P” value was < 1e-05 s⁻¹. Further, in series [3], the “self-cleavage kobs at 160 uM GlcN6P” value was < 1e-05 s⁻¹. Further, in series [2], the “self-cleavage kobs at 2500 uM GlcN6P” value was < 1e-05 s⁻¹.
AUAAAAGCGCCAGAACUACAGAAAUGUAGUUGACGAGGAGGAGGGUUAUCGAAUUUUCGGCGGAUGUCUUUAAA [U45G C67U C70U C71U]: the “self-cleavage kobs at 640 uM GlcN6P” value in series [1] is < 1e-05 s⁻¹.
Turning to AUAAAAGCGCCAGAACUACAGAAAUGUAGUUGACGAGGAGGAUGUUUAUCGCACUUUCGGCGGAUGCCUACAAA [G43U A52C U54C C70A], in series [1], the “self-cleavage kobs at 640 uM GlcN6P” value is < 1e-05 s⁻¹. For the same variant, the “self-cleavage kobs at 2500 uM GlcN6P” value in series [2] is < 1e-05 s⁻¹.
Turning to AUAAAAGCGCCAGAACUACAGAAAUGUAGUUGACGAGGAGGAGGGUUAUCGAAUUUUCUGCGGAUGCCUCGAAA [U45G G59U C71G], in series [1], the “self-cleavage kobs at 640 uM GlcN6P” value was < 1e-05 s⁻¹. The “self-cleavage kobs at 2500 uM GlcN6P” value in series [2] was < 1e-05 s⁻¹.
Regarding AUAAAAGCGCCAGAACUACAGAAAUGUAGUUGACGAGGAGGAGGGUUAUCGAAUUUUCGUCCGAUGCCUUCAAA [U45G G60U G62C C70U], the “self-cleavage kobs at 640 uM GlcN6P” value in series [1] was < 1e-05 s⁻¹. Moreover, the “self-cleavage kobs at 2500 uM GlcN6P” value in series [2] was < 1e-05 s⁻¹.
In the case of AUAAAAGCGCCAGAACUACAGAAAUGUAGUUGACGAGGAGGAGAUUUAUCGAAUUUUCAGCGGAUGUCUCCAAA [G44A G59A C67U], in series [1], the “self-cleavage kobs at 640 uM GlcN6P” value was < 1e-05 s⁻¹. For the same variant, the “self-cleavage kobs at 160 uM GlcN6P” value in series [3] is < 1e-05 s⁻¹.
With AUAAAAGCGCCAGAACUACAGAAAUGUAGUUGACGAGGAGGAGGAUUAUCCCAUUUUCGGCGGAUGCCUUCAAA [U45A G51C A52C C70U], the “self-cleavage kobs at 640 uM GlcN6P” value in series [1] is < 1e-05 s⁻¹. For the same variant, the “self-cleavage kobs at 160 uM GlcN6P” value in series [3] was < 1e-05 s⁻¹.
For the variant AUAAAAGCGCCAGAACUACAGAAAUGUAGUUGACGAGGAGGAGGUAUAUCGAAUUUUCGGCGGAUACCUCCAAA [U46A G66A], the “self-cleavage kobs at 640 uM GlcN6P” value in series [1] turned out to be 0.000156 ± 3.3e-05 s⁻¹. The “self-cleavage kobs at 2500 uM GlcN6P” value in series [2] amounted to 0.000321 ± 8.6e-05 s⁻¹. Also, the “self-cleavage kobs at 10000 uM GlcN6P” value in series [4] was 0.00063 ± 7.9e-05 s⁻¹.
As to AUAAAAGCGCCAGAACUACAGAAAUGUAGUUGACGAGGAGGAGUUUUAUCGACUUUACGGCGGAUGCCUCCAAA [G44U A53C U57A], the “self-cleavage kobs at 640 uM GlcN6P” value in series [1] is < 1e-05 s⁻¹.
AUAAAAGCGCCAGAACUACAGAAAUGUAGUUGACGAGGAGGACGUUUAUAGAAUUUUCGGCGGAUGCCUCCAAA [G43C C50A]: the “self-cleavage kobs at 640 uM GlcN6P” value in series [1] was < 1e-05 s⁻¹. For the same variant, in series [2], the “self-cleavage kobs at 2500 uM GlcN6P” value was < 1e-05 s⁻¹.
AUAAAAGCGCCAGAACUACAGAAAUGUAGUUGACGAGGAGGAGGCUUAUCGAAUUUUAGGCCGAUGCCUCUAAA [U45C C58A G62C C71U]: in series [1], the “self-cleavage kobs at 640 uM GlcN6P” value was < 1e-05 s⁻¹.
Still for that read-out and setting: under AUAAAAGCGCCAGAACUACAGAAAUGUAGUUGACGAGGAGGAGAUUUGUCUAAUUUUCGGCGGAUCCCUCCAAA [G44A A48G G51U G66C] stands < 1e-05 s⁻¹.
Take AUAAAAGCGCCAGAACUACAGAAAUGUAGUUGACGAGGAGGAGAUUUAUCGAGUUUUCGGCGAAUGCCUCCAAA [G44A A53G G63A]: the “self-cleavage kobs at 640 uM GlcN6P” value in series [1] was < 1e-05 s⁻¹. For the same variant, the “self-cleavage kobs at 2500 uM GlcN6P” value in series [2] is < 1e-05 s⁻¹.
Turning to AUAAAAGCGCCAGAACUACAGAAAUGUAGUUGACGAGGAGGAGGCUCAUCGAAUUUUCGGCGGAUGCCUCCAAA [U45C U47C], the “self-cleavage kobs at 640 uM GlcN6P” value in series [1] is 0.000179 ± 5.5e-05 s⁻¹. Further, in series [2], the “self-cleavage kobs at 2500 uM GlcN6P” value amounted to 0.000515 ± 0.00013 s⁻¹.
